Consider 43 compounds from paper PMC4336329 (PLoS ONE, 2015).

Out of some 310,000 compounds screened, about 2,200 (0.71%) showed an effect of 50% or more. The effect is printed as a negative number. This is one part of the list.

In this experiment the target is human ether-à-go-go-related gene (hERG) potassium channel (human, UniProt Q12809). The experiment in a line: primary screen, population patch clamp on CHO cells stably expressing hERG.
human ether-à-go-go-related gene (hERG) potassium channel, sequence (Q12809 whole entry, looked up): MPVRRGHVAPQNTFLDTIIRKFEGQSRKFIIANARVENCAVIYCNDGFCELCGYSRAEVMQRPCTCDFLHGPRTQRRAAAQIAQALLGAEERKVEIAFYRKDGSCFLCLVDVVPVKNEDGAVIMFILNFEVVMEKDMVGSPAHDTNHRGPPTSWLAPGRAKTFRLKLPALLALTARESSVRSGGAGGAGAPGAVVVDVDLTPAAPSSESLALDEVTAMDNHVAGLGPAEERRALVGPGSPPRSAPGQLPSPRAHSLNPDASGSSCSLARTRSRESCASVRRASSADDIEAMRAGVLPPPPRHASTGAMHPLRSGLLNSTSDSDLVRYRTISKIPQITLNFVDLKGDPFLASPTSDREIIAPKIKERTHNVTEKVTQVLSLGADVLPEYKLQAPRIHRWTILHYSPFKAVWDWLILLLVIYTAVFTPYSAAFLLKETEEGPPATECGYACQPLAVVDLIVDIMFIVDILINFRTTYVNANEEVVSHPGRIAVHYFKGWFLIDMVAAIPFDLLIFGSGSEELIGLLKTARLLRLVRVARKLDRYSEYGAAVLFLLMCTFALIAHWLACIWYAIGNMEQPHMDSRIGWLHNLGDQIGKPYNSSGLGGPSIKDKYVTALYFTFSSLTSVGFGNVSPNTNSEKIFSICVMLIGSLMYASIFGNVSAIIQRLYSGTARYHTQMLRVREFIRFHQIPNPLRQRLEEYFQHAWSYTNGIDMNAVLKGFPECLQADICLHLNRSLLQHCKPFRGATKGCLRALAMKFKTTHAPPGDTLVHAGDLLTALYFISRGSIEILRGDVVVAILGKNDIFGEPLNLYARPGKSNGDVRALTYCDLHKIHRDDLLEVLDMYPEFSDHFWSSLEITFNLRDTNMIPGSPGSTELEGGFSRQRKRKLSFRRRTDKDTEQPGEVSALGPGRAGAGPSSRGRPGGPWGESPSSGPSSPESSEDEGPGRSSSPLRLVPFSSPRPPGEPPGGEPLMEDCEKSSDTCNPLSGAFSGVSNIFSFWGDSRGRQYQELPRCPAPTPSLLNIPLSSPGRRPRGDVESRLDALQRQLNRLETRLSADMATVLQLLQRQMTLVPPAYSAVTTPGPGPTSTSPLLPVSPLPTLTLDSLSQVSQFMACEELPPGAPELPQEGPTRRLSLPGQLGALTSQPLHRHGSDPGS
As to `COc1ccc(CC(NC(C)=O)C(=O)NC2CCN(S(=O)(=O)c3ccc(NC(C)=O)cc3)CC2)c(OC)c1` (stereo not shown), the “hERG current change (%, negative = inhibition) at 1uM” value came to 9.13%.

Turning to `CCn1cc(CNC(=O)c2cc(Cl)ccc2OC)c(C)n1`, the “hERG current change (%, negative = inhibition) at 1uM” value was 19%.

Turning to `O=C(COC(=O)c1cccc(O)c1)Nc1ccc(N2CCOCC2)cc1`, the “hERG current change (%, negative = inhibition) at 1uM” value is given as -1.32%.

As for `CC1Cc2ccccc2N1CC(=O)NC(=O)NCc1ccccc1` (stereo not shown), the “hERG current change (%, negative = inhibition) at 1uM” value came to 6.13%.

As to `O=C(NCCN1CCN(S(=O)(=O)c2ccc(F)cc2)CC1)C(=O)NCc1ccccc1`, the “hERG current change (%, negative = inhibition) at 1uM” value came out at 9.7%.

Take `CCOc1ccc(CCNC(=O)CCc2c(C)nc3ncnn3c2C)cc1OCC`: the “hERG current change (%, negative = inhibition) at 1uM” value is recorded as -13.1%.

As to `COc1ccc(C2=NN(c3nc(-c4ccc(CNC(C)=O)cc4)cs3)C(c3ccco3)C2)cc1` (stereo not shown), the “hERG current change (%, negative = inhibition) at 1uM” value is given as 15.6%.

For the compound `CCc1ccccc1Nc1nc(N)nc(COC(=O)c2cccn2C)n1`, the “hERG current change (%, negative = inhibition) at 1uM” value is -5.36%.

Regarding `COc1ccc(N2CCN(C3CCCN(C(=O)CN4CCCC4=O)C3)CC2)cc1` (stereo not shown), the “hERG current change (%, negative = inhibition) at 1uM” value was found to be 14.3%.

In the case of `CN1CCN(c2nc3c(c(=O)[nH]c(=O)n3C)n2Cc2cccc(Br)c2)CC1`, the “hERG current change (%, negative = inhibition) at 1uM” value was -6.41%.

Turning to `Cc1cc2c(=O)n(C)c(SCC(=O)Nc3cccc(F)c3)nc2s1`, the “hERG current change (%, negative = inhibition) at 1uM” value is 10.3%.

Take `Cc1nc(SCC(=O)N2CCc3ccccc3C2)c2c(C)c(C)sc2n1`: the “hERG current change (%, negative = inhibition) at 1uM” value was found to be 1.44%.

As for `O=C(Nc1ccc(F)c(F)c1)c1ccc2c(c1)OCO2`, the “hERG current change (%, negative = inhibition) at 1uM” value is listed as 7.43%.

`O=C(COC(=O)CNC(=O)c1ccc([N+](=O)[O-])o1)Nc1ncc(C(F)(F)F)cc1Cl`: the “hERG current change (%, negative = inhibition) at 1uM” value was -19%.

Turning to `COC(=O)c1cc([N+](=O)[O-])c(-n2ccnc2)c([N+](=O)[O-])c1`, the “hERG current change (%, negative = inhibition) at 1uM” value came out at 15.4%.

As to `Cc1cccc2cc(CN(Cc3ccco3)C(=O)Nc3cccc(C#N)c3)c(Cl)nc12`, the “hERG current change (%, negative = inhibition) at 1uM” value came to 15.2%.

Take `O=C(O)C1CCCCC1C(=O)Nc1nc(-c2ccc(Cl)s2)cs1` (stereo not shown): the “hERG current change (%, negative = inhibition) at 1uM” value amounted to 8.95%.

As for `FC(F)(F)c1nnc(-c2ccccc2)nc1N1CCOCC1`, the “hERG current change (%, negative = inhibition) at 1uM” value is recorded as 4.84%.

As to `CCOC(=O)CCCCCN1C(=O)c2cccc3cccc(c23)C1=O`, the “hERG current change (%, negative = inhibition) at 1uM” value turned out to be 12.6%.

Turning to `COc1cccc(-c2nc(CS(=O)(=O)CC(=O)Nc3ccc(F)cc3F)c(C)o2)c1`, the “hERG current change (%, negative = inhibition) at 1uM” value is 33.6%.

Turning to `COc1ccc(C(=O)Nn2c(SCC(=O)NCC3CCCO3)nc3ccccc3c2=O)cc1` (stereo not shown), the “hERG current change (%, negative = inhibition) at 1uM” value came out at 13%.

For `CCOc1ccc(NC(=S)NC(=O)/C=C/c2ccc(C)cc2)c([N+](=O)[O-])c1`, the “hERG current change (%, negative = inhibition) at 1uM” value was found to be 6.91%.

Turning to `NC(=S)N/N=C/c1ccccc1`, the “hERG current change (%, negative = inhibition) at 1uM” value worked out at 11.7%.

As for `CCCC[N+](CCCC)(CCCC)CCCC.Nc1ncnc2c1ncn2[C@@H]1O[C@H](COS(=O)(=O)[O-])[C@@H](O)[C@H]1O`, the “hERG current change (%, negative = inhibition) at 1uM” value came out at 10.2%.

For `Cc1ccc(CC(=O)NCc2cccnc2)cc1`, the “hERG current change (%, negative = inhibition) at 1uM” value is recorded as -1.49%.

For the compound `Cc1cc(NC(=O)CSc2ccc3nnc(CCNS(=O)(=O)c4ccccc4)n3n2)no1`, the “hERG current change (%, negative = inhibition) at 1uM” value came out at 4.27%.

Take `CCS(=O)(=O)NCc1csc(-c2ccccc2)n1`: the “hERG current change (%, negative = inhibition) at 1uM” value stood at 19.5%.

Turning to `CCn1c(=O)c(C(=O)NNS(=O)(=O)c2ccc(C)cc2)c(O)c2ccccc21`, the “hERG current change (%, negative = inhibition) at 1uM” value turned out to be 1.76%.

On to `Cc1nn(-c2ccccc2)c2c1C1(C(=O)Nc3ccccc31)N1C(=N2)Sc2ccccc21` (stereo not shown), for which the “hERG current change (%, negative = inhibition) at 1uM” value amounted to 1.34%.

With `O=C(CCc1ccccc1)Nc1ccnn1C1CCN(C/C=C/c2ccccc2)CC1`, the “hERG current change (%, negative = inhibition) at 1uM” value is reported as -24.2%.

For the compound `Cc1ccc(C(=O)Nc2cnc3ccccc3c2)cc1`, the “hERG current change (%, negative = inhibition) at 1uM” value amounted to 6.66%.

Consider `Cc1nnc(C)n1/N=C/c1cccnc1`, for which the “hERG current change (%, negative = inhibition) at 1uM” value is given as 13.2%.

Take `Cc1ccc(-n2c(SCC(=O)NC3CCS(=O)(=O)C3)nc3ccccc3c2=O)cc1` (stereo not shown): the “hERG current change (%, negative = inhibition) at 1uM” value was determined as 18.8%.

Regarding `CC(C)(C)OC(=O)NCCCC[C@@H](C(=O)NCCCCCCCCCCC(=O)N1CCN(C(=O)OC(C)(C)C)CC1)n1cc(CCO)nn1`, the “hERG current change (%, negative = inhibition) at 1uM” value is 10.5%.

In the case of `O=C(Nc1cccc(S(=O)(=O)N2CCCCC2)c1)C1CC(=O)N(Cc2ccco2)C1` (stereo not shown), the “hERG current change (%, negative = inhibition) at 1uM” value stood at 8.96%.

For the compound `CN1c2ccccc2C(C)(C)C12CC(c1ccc(Cl)c(S(=O)(=O)N3CCCC3)c1)=NO2` (stereo not shown), the “hERG current change (%, negative = inhibition) at 1uM” value was 12%.

Turning to `COc1cc(C2C(C#N)=C(N)Oc3c2ccc2ccccc32)ccc1OCC(=O)Nc1ccccc1C` (stereo not shown), the “hERG current change (%, negative = inhibition) at 1uM” value was determined as 20.3%.

`CC1=C(C(=O)Nc2ccc(C)cc2C)C(c2ccc(C)o2)NC(=O)N1` (stereo not shown): the “hERG current change (%, negative = inhibition) at 1uM” value is 1.85%.

As for `CCOc1ccc(S(=O)(=O)NNC(=O)c2cc3ccccc3o2)cc1`, the “hERG current change (%, negative = inhibition) at 1uM” value is reported as -6.76%.

Consider `NC(=S)N/N=C/c1c[nH]c2ccc(OCc3ccccc3)cc12`, for which the “hERG current change (%, negative = inhibition) at 1uM” value stood at 10.2%.

Take `O=C(NNC(=S)Nc1ccc(Cl)cc1Cl)C1CC1`: the “hERG current change (%, negative = inhibition) at 1uM” value is 4.5%.

For `COCCCn1c(=S)[nH]c2ncccc2c1=O`, the “hERG current change (%, negative = inhibition) at 1uM” value is reported as -8.38%.

Regarding `COc1ccc(Br)cc1CN1CCCC(C(=O)N2CCCCC2)C1.O=C(O)C(=O)O` (stereo not shown), the “hERG current change (%, negative = inhibition) at 1uM” value is given as -16.9%.
